Among all 270,000 compounds or so, about 5,800 (2.1%) were called active. Inconclusive means that the source gave no clear call. Such entries were picked first, then a sample of the others. The call rests on the fitted dose curve; in most records, active means well fitted inhibition curve with a large enough effect; inconclusive means small, poorly fitted or top-dose-only effect; inactive means flat fitted curve, though single readings scatter. Where the call is inconclusive, the potency comes from a doubtful curve fit.
Molecular target: Microtubule-associated protein tau (Homo sapiens) (UniProt P10636)
Assay: qHTS for Inhibitors of Tau Fibril Formation, Thioflavin T Binding; further: nearly all actives have a fitted effect of over 55% in size
Conditions: recombinant tau K18 P301L (four-repeat tau fragment), heparin-induced fibrillization, ThT fluorescence; series mostly up to 57.4 µM
In short: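 Recombinant human tau K18 fragment […] carrying P301L, 15 uM unlabeled plus 0.24 uM Alexa 594-labeled, was fibrillized with 20 uM heparin in 100 mM sodium acetate pH 7 for 6 hr at 37 C; 30 uM ThT fluorescence read after 1 hr.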
Potency means the concentration at half of the fitted maximal effect; tags describe the fitted curve by direction and shape.

UniProt P10636, sequence (P10636 whole entry, looked up): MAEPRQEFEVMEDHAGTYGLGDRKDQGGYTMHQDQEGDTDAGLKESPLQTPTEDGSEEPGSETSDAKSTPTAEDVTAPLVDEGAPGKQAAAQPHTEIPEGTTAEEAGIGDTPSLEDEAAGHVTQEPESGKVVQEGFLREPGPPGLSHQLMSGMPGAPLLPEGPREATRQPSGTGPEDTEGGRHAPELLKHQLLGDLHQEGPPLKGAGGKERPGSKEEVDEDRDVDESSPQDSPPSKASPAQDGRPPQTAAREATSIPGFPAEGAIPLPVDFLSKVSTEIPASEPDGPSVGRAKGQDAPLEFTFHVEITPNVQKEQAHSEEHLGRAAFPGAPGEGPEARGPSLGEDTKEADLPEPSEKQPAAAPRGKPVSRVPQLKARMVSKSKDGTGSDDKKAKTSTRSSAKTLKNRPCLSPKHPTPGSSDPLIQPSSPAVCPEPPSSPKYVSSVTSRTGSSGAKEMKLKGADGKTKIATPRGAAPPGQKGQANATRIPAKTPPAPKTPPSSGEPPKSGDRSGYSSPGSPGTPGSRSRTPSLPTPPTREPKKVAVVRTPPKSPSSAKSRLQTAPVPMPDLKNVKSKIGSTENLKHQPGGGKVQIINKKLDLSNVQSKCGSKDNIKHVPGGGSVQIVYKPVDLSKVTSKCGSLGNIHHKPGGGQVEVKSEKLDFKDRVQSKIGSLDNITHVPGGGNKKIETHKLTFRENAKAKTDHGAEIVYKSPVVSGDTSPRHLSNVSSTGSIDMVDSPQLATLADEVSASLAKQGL

| Compound | Potency |
| --- | --- |
| COc1ccc(NC(=O)c2c3c(nc4ccccc24)CCN(Cc2ccccc2)C3)c(OC)c1 | inconclusive: 20 µM [inhibitor, single point] |
| COc1cc(C(=O)ON=C2C(C)=CC(=O)C=C2C)cc(OC)c1OC | inconclusive: 11.2 µM [inhibitor, partial curve] |
| O=C(/C=C\c1ccc(-c2ccccc2)o1)c1ccccc1 | inconclusive: 14.1 µM [inhibitor, partial curve] |
| O=C(CCSc1nc(-c2ccco2)cc(C(F)(F)F)n1)N1CCCc2ccccc21 | inconclusive: 39.8 µM [inhibitor, single point] |
| COc1cc(-c2nc3ccccn3c2/N=C/c2cccc(OC)c2O)ccc1O | inconclusive: 17.8 µM [inhibitor, partial curve] |
| CCc1ccc(CNC(=O)C2CCCN(c3nnc(C)c4c(C)n(-c5ccc(OC)cc5)nc34)C2)cc1 (centres undefined) | inconclusive: 20 µM [inhibitor, partial curve] |
| O=C(CCN1C(=O)S/C(=C\c2cccs2)C1=O)NC1=NCCS1 | inconclusive: 15.8 µM [inhibitor, partial curve] |
| N/C(=N\OC(=O)c1ccco1)c1ccccn1 | inactive |
| Cc1ccc(NC(=O)c2cc3nc(-c4ccc5c(c4)OCO5)cc(C(F)(F)F)n3n2)cc1Cl | inconclusive: 17.8 µM [inhibitor, partial curve] |
| O=C(NC1=NN(c2ccccc2)CC1)Nc1ccccc1F | inconclusive: 2.24 µM [inhibitor, full curve] |
| O=C(c1cccc(OC(F)F)c1)N1CCN(c2ncccn2)CC1 | inactive |
| CCOC(=O)N1CC=C2C(C#N)=C(N)C(C#N)(C#N)[C@H](c3ccc(OCC)c(OCC)c3)[C@H]2C1 | inconclusive: 31.6 µM [inhibitor, partial curve] |
| CCN1C(=O)/C(=C/c2cnn(CC)c2C)SC1=S | inconclusive: 12.6 µM [inhibitor, partial curve] |
| Cc1cc(/C=C(\C#N)C(=O)Nc2ccccc2)c(C)n1-c1ccc2c(c1)OCO2 | inconclusive: 2 µM [inhibitor, full curve] |
| COc1cc(/C=C(/C(=O)c2cccs2)c2nc3ccccc3[nH]2)cc(OC)c1O | active: 14.1 µM |
| Cc1ccc(C)c(N(CC(=O)N/N=C/c2ccc(-c3ccc([N+](=O)[O-])cc3)o2)S(=O)(=O)c2ccccc2)c1 | inconclusive: 7.08 µM [inhibitor, full curve] |
| CCn1c(SCC(=O)N2CCN(c3ccccc3)CC2)nc2c(c1=O)SC(C)C2 (centres undefined) | inactive |
| CCOC(=O)Cn1c(=O)n(C2CCCCC2)c2nc(-c3ccc(OCC)cc3)nc(C(N)=O)c21 | inactive |
| CSc1ccc(CCNC(=O)c2ccc3c(c2)nc2n3CCCCC2)cc1 | inconclusive: 5.62 µM [inhibitor, partial curve] |
| COc1ccc(CCNC2CC(=O)N(CCc3ccccc3)C2=O)cc1 (centres undefined) | inactive |
| C=CCNC(=S)NNC(=O)CSc1nc2ccccc2s1 | inconclusive: 15.8 µM [inhibitor, partial curve] |
| CCCCCn1c(SCC#N)nc2cc(C(=O)NCC3CCCO3)ccc2c1=O (centres undefined) | inactive |
| COc1cccc(/C=C2\CCc3ccccc3C2=O)c1 | inconclusive: 31.6 µM [inhibitor, partial curve, poor fit] |

| Compound | Potency |
| --- | --- |
| CCOC(=O)c1c(C)oc2c1c(C=NCc1ccccn1)c(O)c1ccccc12 | active: 12.6 µM |
| O=C(COc1ccc(F)cc1)N1CCC(c2ccccc2)C1 (centres undefined) | inconclusive: 3.16 µM [inhibitor, full curve] |
| O=C(Nc1ccc(Br)c2ccccc12)c1ccc2ccccc2c1O | active: 17.8 µM |
| CC(CCc1ccccc1)NC(=O)Cn1c(=O)nc(-c2ccccc2F)c2cc(Cl)ccc21 (centres undefined) | inconclusive: 28.2 µM [inhibitor, partial curve] |
| O=c1c2ccccc2oc2nc(-c3ccco3)n(CCc3ccccc3)c(=O)c12 | inactive |
| CCOC(=O)Cc1ccc(NC(=O)n2ncc3cc(Cl)ccc32)cc1 | inconclusive: 28.2 µM [inhibitor, single point] |
| CC1CC=C2C(C#N)=C(N)C(C#N)(C#N)C(c3cccs3)C2C1 (centres undefined) | inconclusive: 28.2 µM [inhibitor, partial curve, poor fit] |
| C[C@@H]1C(c2cccc(Cl)c2)=NN(c2ccc(Br)cc2)[C@H]1C(=O)N1CCOC1=O | inconclusive: 39.8 µM [inhibitor, single point] |
| O=C(NN1C(=O)/C(=C/c2cccs2)SC1=S)c1cccnc1 | inconclusive: 35.5 µM [inhibitor, single point] |
| COc1ccc(OC)c(C2N(c3ccccn3)C(=O)C3CCCN32)c1 (centres undefined) | inconclusive: 44.7 µM [inhibitor, single point] |
| N#Cc1ccc(C(=O)Nc2ccccc2-c2nc3ccccc3s2)c(F)c1 | inactive |
| Cc1ccc(NC(=O)C2CC(=O)NC(N3CCc4ccccc43)=N2)cc1 (centres undefined) | inconclusive: 31.6 µM [inhibitor, partial curve] |
| CCCN1C(=O)/C(=C/c2c(NCCCOCC)nc3c(C)cccn3c2=O)SC1=S | inactive |
| COC(=O)c1cc(OC)c(OC)cc1NC(=O)Nc1cccc(C(C)=O)c1 | inactive |
| COC(=O)c1ccc(-c2sc3nc(N4CCOCC4)c4c(c3c2N)CC(C)(C)OC4)o1 | inactive |
| CCn1ccc2cc(OC)ccc2c1=S | inconclusive: 20 µM [inhibitor, single point] |
| O=C(c1csc2ccccc12)n1cccn1 | inactive |
| Cc1nn(C)c2c1c(C(F)(F)F)cc(=O)n2C(C)C(=O)NCCc1ccc(Cl)cc1 (centres undefined) | inactive |
| O=C(CSc1nnc(Cc2cccs2)n1Cc1ccco1)Nc1ccc(Cl)cc1Cl | inconclusive: 35.5 µM [inhibitor, single point] |
| Cc1c(-c2cccc(NC(=O)c3ccc(F)c(F)c3)c2)nc2ncccn12 | inconclusive: 0.891 µM [inhibitor, full curve, poor fit] |
| COc1ccc(C2=Nc3ccccc3OC2)cc1 | inconclusive: 15.8 µM [inhibitor, partial curve] |
| CCOc1cc(CNc2ccc3[nH]c(=O)[nH]c3c2)ccc1OCC(=O)NC(C)(C)C | active: 12.6 µM |
| CCc1ccccc1NC(=O)CSc1ncccc1C(=O)O | inactive |

| Compound | Potency |
| --- | --- |
| COc1cccc(CNC(=O)CCc2c(C)nc3c(c2C)c(=O)n(C)c(=O)n3C)c1 | inactive |
| O=C(C1=C(O)C(=O)N(c2ncccn2)C1c1cccs1)c1ccco1 (centres undefined) | inconclusive: 15.8 µM [inhibitor, partial curve] |
| Cc1c(CCC(=O)O)c(=O)oc2cc3occ(-c4ccc(F)cc4)c3cc12 | inconclusive: 44.7 µM [inhibitor, single point] |
| CSc1nc(C)c(C(=O)Nc2ccccc2)c(-c2ccco2)c1C#N | inactive |
| COc1cc(-c2ccc(NC(=O)NC3CC3)c(OC)c2)ccc1NC(=O)NC1CC1 | inconclusive: 1.12 µM [inhibitor, full curve] |
| CCOC(=O)C[N+](C)(C)CCOC1CC2CCC1(C)C2(C)C (centres undefined) | inactive |
| COc1ccc2c(=O)c(-c3ccc(OC)c(OC)c3)coc2c1 | inconclusive: 39.8 µM [inhibitor, single point] |
| O=C(CCc1ccc(O)cc1)c1c(O)cc(O)cc1O[C@H]1OC(CO)C(O)C(O)C1O (some centres undefined) | inconclusive: 7.08 µM [inhibitor, single point] |
| Cc1nnc(SCc2ccc(C(=O)Nc3cc(Cl)ccc3C)cc2)s1 | inconclusive: 8.91 µM [inhibitor, partial curve] |
| O=C(N/N=C/c1ccc([N+](=O)[O-])o1)c1cn(-c2ccccc2)nc1-c1ccc(Cl)cc1 | inconclusive: 7.08 µM [inhibitor, full curve] |
| CC1=C(C(N)=O)C(c2ccco2)C(C(N)=O)=C(C)N1 | inactive |
| O=C(Nc1ccc(F)cc1Cl)C1CCN(c2ncnc3c2nc2n3CCCCC2)CC1 | inconclusive: 10 µM [inhibitor, partial curve] |
| O=C(/C=C/c1ccc(Br)cc1)NC(=O)c1ccccc1O | inconclusive: 12.6 µM [inhibitor, partial curve] |
| Cc1ccc2nc(-c3cc(N)cc(N)c3)oc2c1 | inconclusive: 28.2 µM [inhibitor, partial curve] |
| Cc1ccc(NC(=O)c2c(C)oc3ccc(O)c(CN4CCCC4)c23)c(C)c1 | inactive |
| C=CCNc1ncnc2c1cnn2-c1cccc(C)c1 | inconclusive: 31.6 µM [inhibitor, single point] |
| CCc1ccc(NC(=O)C2CCCN(c3nn4cc(-c5ccc(OC)cc5)nc4s3)C2)cc1 (centres undefined) | inconclusive: 12.6 µM [inhibitor, partial curve] |
| Cc1c(C(=O)NCC2CCCO2)oc2ccc3c(c12)C(=O)CC(C)(C)O3 (centres undefined) | inconclusive: 17.8 µM [inhibitor, partial curve] |
| CCOc1ccc(N2CC(C(=O)NCc3ccc(C)n3C)CC2=O)cc1 (centres undefined) | inconclusive: 22.4 µM [inhibitor, partial curve] |
| CCC1Cc2c(nc(N)c3c(N)nc(N4CCOCC4)c(C#N)c23)O1 (centres undefined) | inconclusive: 14.1 µM [inhibitor, partial curve] |
| CCOc1ccc(C2C(C(=O)OC)=C(C)NC3=C2C(=O)c2ccccc23)cc1OC (centres undefined) | inconclusive: 1.78 µM [inhibitor, full curve] |
| CC1CCN(C(C(=O)Nc2ccc(C(C)C)cc2)c2ccc3c(c2)OCO3)CC1 (centres undefined) | inactive |
| CC(/C=C1\SC(=S)N(CCC(=O)Nc2nc(C)cs2)C1=O)=C\c1ccccc1 | inconclusive: 7.94 µM [inhibitor, full curve] |
